# According to PubChem BioAssay AID2451 (National Center for Advancing Translational Sciences (NCATS), 2010):
# Values joined by “and” are separate entries in the source; they are usually repeats but may differ in a detail not shown here. Equal entries are not always repeated. Screen size: about 290,000 compounds; about 2,100 (0.72%) were called active. This list was built around the results that the source calls inconclusive (neither active nor inactive); the mix of calls is not that of the screen. The call rests on the fitted dose curve; in most records, active means well fitted inhibition curve with a large enough effect; inconclusive means small, poorly fitted or top-dose-only effect, or effect the other way; inactive means flat fitted curve, though single readings scatter. Where the call is inconclusive, the potency comes from a doubtful curve fit.
# Molecular target: Fructose-bisphosphate aldolase (Giardia intestinalis (strain ATCC 50803 / WB clone C6)) (UniProt A8B2U2)
# Chain of UniProt A8B2U2 (A8B2U2 whole entry, looked up): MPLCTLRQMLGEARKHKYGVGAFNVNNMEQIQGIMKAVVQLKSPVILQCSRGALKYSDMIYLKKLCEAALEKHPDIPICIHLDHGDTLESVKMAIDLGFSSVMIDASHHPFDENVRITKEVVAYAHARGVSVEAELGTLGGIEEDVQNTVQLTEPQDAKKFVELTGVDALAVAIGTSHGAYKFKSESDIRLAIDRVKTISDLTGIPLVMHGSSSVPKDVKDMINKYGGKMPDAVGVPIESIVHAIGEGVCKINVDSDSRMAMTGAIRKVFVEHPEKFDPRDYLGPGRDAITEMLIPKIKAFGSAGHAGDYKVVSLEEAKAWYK
# Assay: qHTS Assay for Inhibitors of Fructose-1,6-bisphosphate Aldolase from Giardia Lamblia; further: nearly all actives have a fitted effect of over 55% in size
# Settings: purified Giardia FBPA; activity, negative = inhibition: at 59.6 µM (top of the series) unless noted
# Outline: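 40 nM FBPA preincubated 10 min at RT with compound (up to 57.5 uM final), then substrate plus GAPDH/TPI/NAD/arsenate coupling and diaphorase/resazurin added. Fluorescence read after 20 min at RT, 525/598 nm.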
# On the % scale 0 is the no-effect control and ±100 the full control effect; potency means the concentration at half of the fitted maximal effect; tags describe the fitted curve by direction and shape.
SMILES,Potency,"activity, negative = inhibition"
CCC(NC(=O)Nc1ccc(O)cc1)(C(F)(F)F)C(F)(F)F,"inconclusive: 15.8 µM [inhibitor, partial curve]",–
Cc1ccc(C(C)C)c(OCCCN2CCc3ccccc3C2)c1,"inconclusive: 39.8 µM [inhibitor, single point]",–
Cc1ccc(NC(=O)CCN2CC(C)OC(C)C2)cc1 (configuration not stated),"inconclusive: 28.2 µM [inhibitor, partial curve]",–
ClC1=C(Cl)C(Cl)(C2(Cl)C(Cl)=C(Cl)C(Cl)=C2Cl)C(Cl)=C1Cl,"inconclusive: 17.7 µM [inhibitor, partial curve]",–
COc1cc(CNCCCN2CCOCC2)cc(Cl)c1OCC(=O)NC(C)(C)C,"inconclusive: 28.2 µM [inhibitor, single point]",–
Cc1cc(N=NC(=O)c2ccccc2)ccc1O,"inconclusive: 22.3 µM [inhibitor, single point]",–
O=C(CCc1ccccc1)Nc1ccc(N2CCCCC2)cc1,–,inactive: 1.56%
O=C(O)CCC(=O)Nc1ccc(SSc2ccc(NC(=O)CCC(=O)O)cc2)cc1,–,inactive: 2.22%
CCOc1cc(N2CCOCC2)c(OCC)cc1NS(=O)(=O)c1cc(NC(C)=O)ccc1OC,"inconclusive: 15.8 µM [inhibitor, partial curve]",–
Nc1nnnn1CC(=O)N/N=C/C=C/c1ccccc1,–,inactive: 1.09%
Nc1ccc(N)cc1,"inconclusive: 6.29 µM [inhibitor, partial curve] and inconclusive: 3.54 µM [inhibitor, partial curve]",–
COc1cc(-c2nc3ccccn3c2/N=C/c2ccc(F)cc2)ccc1O,"inconclusive: 22.3 µM [inhibitor, single point]",–
COc1ccccc1-n1c(=S)[nH]c2c(sc(=S)n2-c2ccccc2C)c1=O,"inconclusive: 15.8 µM [inhibitor, single point]",–
CCC(C)C1Nc2ccc(C(=O)NCCc3ccc(OC)c(OC)c3)cc2NC1=O (configuration not stated),–,inactive: -2.63%
CCCCCCCC/C=C\C/C=C\C=C\C(O)CCCC(=O)O (configuration not stated),–,inactive: 2.86%
CCOC(=O)c1ccc(N2C(=O)CC(N3CCC(Nc4ccc(F)cc4)CC3)C2=O)cc1 (configuration not stated),–,inactive: -1.09%
Cc1ccccc1N=Cc1cc2c(cc1O)OC(N)=C(C#N)C2c1ccccc1 (configuration not stated),"inconclusive: 35.4 µM [inhibitor, single point]",–
Cc1cc(N2CCN(C)CC2)nc(=S)[nH]1,"inconclusive: 17.7 µM [inhibitor, partial curve]",–
CN(C)S(=O)(=O)c1ccc(NC(=S)NC(=O)c2cccs2)cc1,active: 17.7 µM,–
COc1ccc(C(=O)CSc2nccc(=O)[nH]2)cc1,"inconclusive: 31.6 µM [inhibitor, partial curve]",–
COc1ccc(OC)c2c(N3CCN(C)CC3)cc(C(F)(F)F)nc12,"inconclusive: 15.8 µM [inhibitor, partial curve]",–
O=[N+]([O-])c1cccc(OCCN2CCC(Cc3ccccc3)CC2)c1,"inconclusive: 28.2 µM [inhibitor, partial curve, poor fit]",–
COc1ccc(C(=O)N/N=C(\C)c2ccc3c(c2)C2C=CCC2C(c2ccccc2)N3)cc1 (configuration not stated),"inconclusive: 14.1 µM [inhibitor, partial curve]",–
CC(=O)c1ccc(N2CCN(CC3CCCCC3)CC2)cc1,"inconclusive: 31.6 µM [inhibitor, partial curve]",–

SMILES,Potency,"activity, negative = inhibition"
CN1CCc2c(sc(/N=C/c3c[nH]c4ccccc34)c2C(N)=O)C1,"inconclusive: 15.8 µM [inhibitor, single point]",–
N=C1CCC(=N)c2c1c(O)c1ccccc1c2O,active: 6.29 µM,–
CCNc1nc(-c2cc(C)n(Cc3ccco3)c2C)cs1,"inconclusive: 15.8 µM [inhibitor, single point]",–
CN(C)CCOCCOc1ccc(Cl)c2ccccc12,"inconclusive: 19.9 µM [inhibitor, partial curve]",–
C=CCOC(=O)C1=C(C)NC(SCC(=O)Nc2ccccc2)=C(C#N)C1c1ccco1 (configuration not stated),–,inactive: -6.37%
Cc1ccc(C2CC(=O)N3CN(Cc4ccco4)CSC3=C2C#N)cc1 (configuration not stated),"inconclusive: 1.12 µM [inhibitor, full curve]",–
COc1ccc(S(=O)(=O)NC2CCSc3ccccc32)cc1OC (configuration not stated),–,inactive: 7.64%
CCCOC(=O)C1=C(C)N(C)C(=O)NC1c1cc2c(cc1[N+](=O)[O-])OCO2 (configuration not stated),"inconclusive: 5.61 µM [inhibitor, partial curve]",–
COc1ccc(N2CCN(C(c3cc(OC)ccc3OC)c3nnnn3CC3CCCO3)CC2)cc1 (configuration not stated),"inconclusive: 15.8 µM [inhibitor, single point]",–
CCSc1ccc(C(=O)Nc2cccc(C)n2)cc1[N+](=O)[O-],–,inactive: -1.93%
CN1CCN(CCCNC(=O)Cn2nc(-c3ccccc3)ccc2=O)CC1,"inconclusive: 19.9 µM [activator, single point]",–
O=C(/C=C/c1ccc(O)c(O)c1)c1ccc(O[C@@H]2O[C@H](CO)[C@@H](O)[C@H](O)[C@H]2O)c(O)c1O,"inconclusive: 17.7 µM [inhibitor, single point]",–
COc1ccc(C(=O)NC(=S)Nc2ccc(CN3CCOCC3)cc2)cc1Br,"inconclusive: 6.31 µM [inhibitor, partial curve]",–
N/N=C(\Cc1cscn1)c1ccc(O)cc1O,–,inactive: -12.2%
Cc1c(C(=O)Nc2ccccc2)c2cc(O)ccc2n1Cc1ccccc1,–,inactive: -16.7%
COCCNCC(=O)Nc1ccc(OC(F)(F)F)cc1,"inconclusive: 19.9 µM [inhibitor, partial curve]",–
CC1(C)Cc2ccccc2-c2nc(NN)[nH]c(=O)c21,"inconclusive: 28.2 µM [inhibitor, partial curve]",–
O=C(Nc1nnc(-c2ccc(F)cc2)o1)c1ccco1,"inconclusive: 19.9 µM [inhibitor, single point]",–
COC(=O)C(NNc1ccccc1)(NC(=O)c1cccc(F)c1)C(F)(F)F (configuration not stated),"inconclusive: 15.8 µM [inhibitor, partial curve]",–
CCCCNC(=O)CSc1nc2ccc(N3CCOCC3)cc2c(=O)n1Cc1ccc(OC)cc1,"inconclusive: 4.46 µM [inhibitor, full curve]",–
O=C(N=Nc1c(O)n(Cc2ccccc2)c2ccccc12)c1cc2ccccc2cc1O,"inconclusive: 11.2 µM [inhibitor, partial curve]",–
CCCCNc1cc(NC(C)=O)cc2cc(OC)c(OC)cc12,"inconclusive: 0.889 µM [inhibitor, full curve]",–
CC1CCc2nc(NC(=O)CN3CCN(c4ccccc4)CC3)sc2C1 (configuration not stated),–,inactive: 6%
NC(=O)C1CCN(C(=O)CCSc2ccccc2)CC1,–,inactive: 4.11%

SMILES,Potency,"activity, negative = inhibition"
Cc1ccc(OCC(=O)Nc2ccc(O)c(C(=O)O)c2)cc1C,"inconclusive: 15.8 µM [activator, partial curve]",–
Cc1cc(C(=O)O)ccc1-c1ccc(/C=C2\NC(=O)N(Cc3ccccc3Cl)C2=O)o1,"inconclusive: 15.8 µM [inhibitor, single point]",–
CC1CN(S(=O)(=O)c2ccc(C(=O)Nc3nnc(-c4ccco4)o3)cc2)CC(C)O1 (configuration not stated),active: 17.7 µM,–
CCOC(=O)c1ccccc1NC(=O)CN(c1ccccc1OC)S(C)(=O)=O,–,inactive: 6.31%
COc1cccc(-n2c(SCC(=O)Nc3nc4ccccc4s3)nc3ccccc3c2=O)c1,–,inactive: -6.35%
CNc1ccc(Br)cc(C(=O)/C=C/c2cccc(OC)c2OC)c1=O,"inconclusive: 5.61 µM [inhibitor, partial curve]",–
COc1ccccc1/C=C/CN1CCSCC1,"inconclusive: 28.2 µM [inhibitor, partial curve]",–
Cc1cc(N)n2ncc(-c3ccccc3)c2n1,–,inactive: -0.0578%
CCCC(C)c1nnc(NC(=O)c2cc(C(=O)OC)cc([N+](=O)[O-])c2)s1 (configuration not stated),active: 17.7 µM,–
COC(=O)c1sc2nc(SCc3cccc(Cl)c3)n(N)c(=O)c2c1C,–,inactive: -0.0182%
COc1cc(C2NC(=O)C(C#N)=C(Nc3cccc(C)c3)S2)ccc1O (configuration not stated),active: 14.1 µM,–
CCCCN=C1C([N+](=O)[O-])=CC=C2C1=NC1(CCCCC1)N2O,"inconclusive: 4.46 µM [inhibitor, full curve]",–
OC(CN1CCCC1)Cn1ccc2ccccc21 (configuration not stated),"inconclusive: 25.1 µM [inhibitor, partial curve]",–
COCCCNC(=O)c1c(N)n(Cc2ccco2)c2nc3ccccc3nc12,"inconclusive: 22.3 µM [inhibitor, partial curve]",–
COc1cc(NC(=S)Nc2ncccc2C)cc(OC)c1OC,"inconclusive: 15.8 µM [inhibitor, partial curve]",–
Cc1ccc(-n2[nH]c(C)c(/C=N/NC(=O)c3ccc([N+](=O)[O-])cc3)c2=O)c(C)c1,–,inactive: 10.9%
COc1ccc(NC(=S)N(Cc2ccc(C(=O)O)cc2)Cc2ccc(OC)c(OC)c2)cc1,"inconclusive: 19.9 µM [inhibitor, single point]",–
Cc1[nH]n(C(N)=S)c(=O)c1N=Nc1cccc(Cl)c1,"inconclusive: 35.5 µM [activator, partial curve]",–
O=C(NNc1cccc(Cl)n1)c1ccc(Cl)cc1Cl,–,inactive: -7.73%
CCN(CC)Cc1c(NC(=O)c2ccccc2)sc(C)c1C,–,inactive: -3.41%
CCn1nc(NC(=O)c2ccccn2)c2cc3cc(C)ccc3nc21,"inconclusive: 19.9 µM [inhibitor, partial curve]",–
O=C(NNC(=O)C1CCN(S(=O)(=O)c2ccccc2)CC1)c1ccccc1O,"inconclusive: 12.6 µM [inhibitor, partial curve]",–
C/C(CCC1CC(C)(C)OC1=O)=N\NC(N)=S (configuration not stated),active: 17.7 µM,–
O=C(NC(=S)Nc1cccc2cnccc12)c1ccccc1,"inconclusive: 15.8 µM [inhibitor, partial curve]",–
